PMC10668032
The list shows a part of the results. At the low end of the ranking the order means little.

Each sequence was assayed against SIX1 homeodomain (reference allele) (UniProt Q15475) (assay: universal protein binding microarray). Details: Universal all-10-mer PBM (8x60K, AMADID 030236), 300 nM GST-tagged protein, Alexa Fluor 488 anti-GST; buffer, salt, pH and temperature not stated; high values mean tight binding; most listed sequences are background and not binding sites; double strand, one strand shown.

| Sequence | binding signal [E-score] |
| --- | --- |
| CCAACCAC | 0.0827 |
| CCCGGACC | -0.0763 |
| GGGAAAAC | -0.169 |
| ACTACACT | 0.139 |
| CAACCCTA | -0.13 |
| GCGGCCTA | -0.214 |
| GCGCTTGA | 0.0251 |
| GAAGCATC | -0.0605 |
| ATATTAAT | 0.303 |
| AAGTCTCC | -0.214 |
| CGTACGAA | -0.119 |
| CACAAGAC | -0.225 |
| TGATCCAA | 0.324 |
| ACGAATCG | -0.0264 |
| AAAATGTA | -0.0661 |
| AATCGCTA | -0.0491 |
| AACATCGA | 0.0119 |
| GTTACAGA | -0.162 |
| ACACAAAC | -0.172 |
| CTCTTCAA | -0.232 |
| CATGCTAA | -0.146 |
| AAGCTTGT | -0.233 |
| AGGGATAA | 0.292 |
| ATTGATCC | 0.406 |

| Sequence | binding signal [E-score] |
| --- | --- |
| CATCTTTA | -0.0969 |
| CTCTAGTC | -0.278 |
| GATAGCGC | 0.19 |
| GAAAACAC | -0.117 |
| TATCCACA | 0.326 |
| ATTATTTA | 0.089 |
| GAACTGGC | -0.218 |
| ACGTCGGA | -0.00231 |
| GTAACTAA | -0.101 |
| ATGTTAGC | -0.0438 |
| CCGAGCCC | -0.00271 |
| AGTGTGAT | 0.247 |
| AGGCACAT | -0.208 |
| ATACAAGG | 0.0753 |
| CTACATGA | -0.0304 |
| AAGGCAGT | -0.2 |
| GCCGCTAC | -0.19 |
| CACGGCCA | -0.242 |
| CACAGATA | 0.205 |
| TAGCCTAA | -0.0109 |
| AAAGCTAA | -0.374 |
| AGAAAAAA | -0.259 |
| GTGTACCA | 0.112 |
| ATCTCCTG | 0.298 |

| Sequence | binding signal [E-score] |
| --- | --- |
| CGGGCCAC | -0.147 |
| TTATCGAA | 0.0356 |
| GACTGCGA | -0.0786 |
| ACAGGATA | 0.236 |
| GGAACTGA | -0.232 |
| AGTCGCAC | -0.19 |
| AGGTAAGG | -0.125 |
| ATTCTAAA | -0.136 |
| GATTATCA | 0.219 |
| ATTTGTGC | -0.149 |
| ATGCTCCA | 0.0144 |
| AGGGATCC | 0.386 |
| CGACCTGC | -0.194 |
| AAACAGAC | -0.326 |
| CCAGCTGG | 0.157 |
| AGGCAAGC | -0.336 |
| CCCGCGAA | 0.0489 |
| GACGGACA | -0.169 |
| ACGGTGCG | -0.0248 |
| CAACTGCC | -0.215 |
| GTACGCCA | -0.0308 |
| AACCGAAC | -0.0711 |
| AGCAACAC | 0.0896 |
| CCCGACCG | 0.0499 |

| Sequence | binding signal [E-score] |
| --- | --- |
| ACACGTCA | -0.119 |
| ATACATGC | 0.271 |
| CAATGCTA | -0.0933 |
| CACCGAAG | -0.0271 |
| GAATCGCA | -0.0764 |
| GTAATGGA | 0.0742 |
| ACTCATTA | -0.141 |
| ATAAAATC | 0.148 |
| ACCTACGA | -0.0113 |
| CTCCTAAG | -0.0955 |
| AGCTCGAC | -0.0702 |
| AAGTGTAC | 0.0592 |
| ATGGGGGG | -0.00857 |
| TAGGCCGA | -0.166 |
| GAGAGTGC | -0.171 |
| CGACTCCC | -0.0209 |
| CGCACATA | 0.0156 |
| AATAATGA | -0.0651 |
| AGACTTAT | -0.017 |
| GGCTCAAA | -0.0755 |
| CGAAAAAA | -0.219 |
| ATTGTCTA | 0.0709 |
